Data reported in ChEMBL document CHEMBL4888484, “Replenishing the malaria drug discovery pipeline: Screening and hit evaluation of the MMV Hit Generation Library 1 (HGL1) against asexual blood stage Plasmodium falciparum ,using a nano luciferase reporter read-out” (2022).
In all, about 150,000 compounds went through this assay and about 540 (0.36%) showed an effect of 50% or more. The list shows a part of the results.

System: Plasmodium falciparum
Experiment: Primary screen in NF54 nanoGlo assay, in single point, at 2uM, 72h; a lower Z score goes with more inhibition
Assay type: functional, Erythrocyte
Conditions: timepoint 72 hour

Compound	% Inhibition [%]	Z score
COc1ccc(Cl)cc1S(=O)(=O)N1C[C@H]2CC[C@@H](C1)N(C)C2=O	16	-2.09
CN(C(=O)c1nc(S(C)(=O)=O)ncc1Cl)c1ccccc1	13	-2
CC(=O)N1CCC(CNC(=O)NCC(C(C)C)C(C)C)CC1	-6	1.08
Cc1cncc([C@H](C)NCc2ccc(OC(C)(C)C)nc2)c1	0	-0.07
O=C(Nc1ccccc1)c1cnc(NS(=O)(=O)c2ccccc2)nc1	-14	2.74
CC(=O)N[C@@H]1C[C@H](Cc2ccccc2)O[C@H](c2ccc(Cl)cc2)C1	-5	0.98
Cc1ncn(CCNC(=O)Cc2cccnc2)c1C	-19	1.7
Nc1cc(N2C[C@@H]3[C@H]4CC[C@H](CC4)[C@@H]3C2)nc(N)n1	8	-1.06
CC(C)Cc1noc(CN(C)C(=O)Nc2ccc3c(c2)C(=O)OC3)n1	-3	0.54
Cc1c(NC(=O)CN2C[C@@H]3CC[C@H]2CN(Cc2cscn2)C3)cnn1C	1	-0.22
CCC(CC)(NC(=O)C1CN(C(=O)c2ccc(F)c3ccncc23)C1)C(N)=O	-6	0.67
OCc1cnc(N2CCO[C@H](C(F)(F)F)C2)cn1	2	-0.29
CC(C)(C)c1ncc2c(n1)CCN(CCOc1cccc(C(=O)O)c1)C2	-17	1.81
O=C1NCC2=C1[C@@H](c1ccccc1)Nc1ccccc1N2	-3	0.24
CC(C)c1ccc(NC(=O)C2CCN(S(=O)(=O)c3ccc4c(c3)sc(=O)n4C)CC2)cc1	-7	0.88
CC1CC1c1ccc(CN(C)C(=O)C(C)n2cncn2)o1 (stereo unspecified)	-11	1.59
O=C1NCC(=O)N2C(c3ccccc3)c3[nH]c4ccccc4c3C[C@@H]12 (stereo partly specified)	5	-0.6
C[C@@H]1CN(C(=O)CN2C[C@@H]3CC[C@H]2CN(Cc2ccccn2)C3)C[C@H](C)O1	-19	1.87
O=c1[nH]c(NCC2CCOCC2)nc2c1Cc1ccccc1OC2	-6	1.06
Cc1ccc(-c2nnc([C@H](C)Nc3ccc4oc(C)nc4c3)o2)cc1	-24	2.13
O=C(NCc1cccc2[nH]ccc12)c1ccc2occc2c1	-6	0.99
Cc1cccc(NC(=O)N[C@@H](C)c2nnc(C(F)(F)F)[nH]2)c1F	-13	1.77
c1ccc(Oc2ccnc(N3CCCC[C@H]3c3ncccn3)n2)cc1	-6	0.77
CCOC(=O)c1noc2ncnc(N3CCCC[C@@H]3C)c12	6	-1.11
CC(=O)Nc1ccc(C(=O)N(CCc2ccccc2)C2CCN(C)CC2)cn1	-9	1.29
CN(C)c1cc(C(=O)N[C@H]2CCCCNC2=O)ccn1	-9	1.68
COc1c(C)cnc(CN2CCC(c3nnc[nH]3)CC2)c1C	4	-0.78

Compound	% Inhibition [%]	Z score
O=C(Nc1ccccc1)Nc1ccnn1C1CCCC1	3	-0.46
CCn1ccc2c(CN(C)[C@H](c3ccccn3)C3CC3)cccc21	1	-0.12
O=C(O)C[C@H]1CCCCN1C(=O)CC1=CCCCC1	-8	1.08
CC(C)[C@H](Nc1ncncn1)c1nccn1C	18	-2.43
Cc1nn(-c2nc(C)c(C)c(=O)[nH]2)c(C)c1CCC(=O)N1CCc2ccccc2C1	-22	2.81
CCCC[C@H](NCC=C(C)C)c1cccnc1	5	-0.57
Cc1nc(C)c([C@H](C)N(C)S(=O)(=O)C2COC2)s1	0	0.02
Cc1cncc([C@H](C)Nc2ccc3c(c2)CCC(=O)N3CC2CC2)c1	1	-0.2
O=C(N[C@H]1CCOc2ccccc21)c1ccc(=O)[nH]c1	-11	1.1
CC(C)N(CC(=O)Nc1nc(CC(=O)Nc2ccccc2F)cs1)C(=O)c1ccc(Cl)c(Cl)c1	-5	0.61
O=C(c1cn[nH]c1)N1CCN(c2ccc(C(F)(F)F)cc2)CC1	-7	0.99
Cc1ccc(Cn2c(=O)c(C(=O)N3CCN(C)CC3)nn(-c3cccc(F)c3)c2=O)cc1	1	-0.13
Cc1ccc(=O)n(Cc2nc(C)nn2-c2ccc3nc(C)sc3c2)n1	-7	1.12
Cn1cc(N2C(=O)CN(Cc3ccc(C(F)(F)F)cc3)C2=O)cn1	-12	2.25
C[C@H](NC(=O)c1cccn1C)c1ccc(N2CCCS2(=O)=O)cc1	-8	1.57
O=C(Nc1ccc(N2CCOCC2)cc1)[C@@H]1CCCc2ccccc21	-13	1.29
CN(C)c1ccc(-c2noc(C(=O)Nc3ccccc3)n2)cn1	-10	2.04
OC[C@H]1CCCN(CCCNCc2ccc3cc(O)ccc3c2)C1	-6	0.93
Cc1cc(C)n(CCC(=O)N2CCC(CCc3noc(N(C)C)n3)CC2)n1	-5	0.75
C[C@H](CO)N(C)S(=O)(=O)c1csc2ccc(Cl)cc12	-6	0.98
CC1CCCN(C(=O)NCCc2nccn2Cc2ccccc2)C1C (stereo unspecified)	-3	0.62
O=S(=O)(c1cccnc1)N(CC(F)(F)F)C1CCOCC1	-5	0.75
Cc1ccc2oc(CN(Cc3cc(F)ccc3F)C(=O)c3ccc(Cl)cc3Cl)nc2c1	-13	2.12
CS(=O)(=O)N1CCC(CC2CC2)(c2noc(-c3ccc(F)cc3)n2)CC1	-5	0.7
CCN1CCN(C(=O)C(=Cc2cccc(F)c2)n2nnnc2C)CC1	-4	0.67
Cc1noc(C)c1CC(=O)Nc1cccc(N2CCCC2=O)c1	-2	0.38
